# Results published in the supplement of paper PMC10126150.
# Sequences with one replicate were seen in a single cluster, so their values are uncertain.
# Tested on: ATP
# Experiment: switch fluorescence ratio, 500 uM ATP over buffer (Cy3 cluster intensity, sum of 5 cycles each) (fold (ratio)); higher = stronger signal-on switching upon ATP binding; sequences stand for … in TCGTCGGCAGCGTCAGATGTGTATAAGAGACAGTTTTTTTTTTTTTTTTTTTTTTTTT…TC
# Settings: aptamer strand: ATP DNA aptamer (quencher-CACCTGGGGGAGTATTGCGGAGGAAGG + anchor), 100 nM annealed; ATP concentration: 500 uM; one replicate
# Method in brief: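 Cy3-labelled switching-strand clusters on a modified Illumina MiSeq flow-cell were annealed to 100 nM quencher-labelled ATP aptamer and imaged first in selection buffer, then after 15 min with 500 uM ATP at 22 °C. NaOH stripping and re-annealing separated each of five buffer/ATP cycles, and clusters outside 100-1000 RFU were excluded. The fluorescence ratio sums target-cycle Cy3 intensity over buffer-cycle Cy3 intensity per cluster and averages it per switch-domain sequence.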
# 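Note: ATP exposure 15 min at 22 °C before imaging.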
row,Sequence,switch fluorescence ratio
1,GTTGCGGGGC,1.02
2,GTTGCTAAAC,1
3,GTTGCTGAAC,1.03
4,GTTGCTTCAC,1.02
5,GTTGGACCCA,1.05
6,GTTGGATACT,0.997
7,GTTGGATCA,1.01
8,GTTGGCATT,0.974
9,GTTGGCGATG,0.942
10,GTTGGCTGCA,1.02
11,GTTGGGCGCC,0.987
12,GTTGGTAGCT,1.03
13,GTTGGTCCCG,0.996
14,GTTGTAGGCA,0.994
15,GTTGTCGTCA,1
16,GTTGTGACAC,0.993
17,GTTGTGTGCA,0.949
18,GTTGTGTGGT,0.965
19,GTTGTTAATG,0.981
20,GTTGTTACTT,0.992
21,GTTGTTCACC,1.04
22,GTTGTTCTCA,1.01

row,Sequence,switch fluorescence ratio
1,GTTGTTGCGA,1.01
2,GTTTAACATG,0.968
3,GTTTAAGCGA,1.03
4,GTTTAATGAC,0.96
5,GTTTACGGAG,1.05
6,GTTTACGTTA,1.19
7,GTTTAGCAGG,1
8,GTTTATAAAA,0.979
9,GTTTATGCT,1.03
10,GTTTATTGAT,0.951
11,GTTTCAGACC,1.01
12,GTTTCAGTGG,0.968
13,GTTTCTCTAA,1.03
14,GTTTCTTCGG,0.953
15,GTTTCTTGAG,0.983
16,GTTTGAGAGG,0.961
17,GTTTGAGGCA,1
18,GTTTGATAG,1.02
19,GTTTGCAAAA,0.981
20,GTTTGCCCAG,0.991
21,GTTTGCCTGG,0.943
22,GTTTGCGTAC,1.11

row,Sequence,switch fluorescence ratio
1,GTTTGGAT,1.02
2,GTTTGGTCCT,0.974
3,GTTTTAGTCT,0.961
4,GTTTTATCAC,1.01
5,GTTTTCCTCA,1.65
6,GTTTTCGTCA,1.01
7,GTTTTCGTTA,1.01
8,GTTTTCGTTG,1.02
9,GTTTTGACCA,0.98
10,GTTTTGAGCT,1.02
11,GTTTTGTGA,1.02
12,GTTTTGTGAC,1.05
13,GTTTTGTGCT,0.947
14,TAAAAAACTC,1.1
15,TAAAAAGCCC,1.04
16,TAAAAAGCCG,1.04
17,TAAAAAGTCT,1.03
18,TAAAAAGTTA,0.95
19,TAAAACGTGG,0.984
20,TAAAACTATG,1.01
21,TAAAAGATG,0.974
22,TAAAAGCCAA,1.13

row,Sequence,switch fluorescence ratio
1,TAAAAGGCCG,0.973
2,TAAAATCAAA,0.96
3,TAAAATTTCC,1
4,TAAACAACTC,1
5,TAAACAAGAT,1.39
6,TAAACACGTT,1.02
7,TAAACCGATA,1.1
8,TAAACGCATA,1.85
9,TAAACGTAAT,1.22
10,TAAACTAGA,0.95
11,TAAACTAGGG,1.07
12,TAAACTTGTA,1
13,TAAAGAATCT,1.06
14,TAAAGCCGTG,1.01
15,TAAAGCGAAG,0.98
16,TAAAGCTCAT,1.08
17,TAAAGCTGAG,1.07
18,TAAAGCTGGG,0.997
19,TAAAGGCAAC,1.07
